Reference: the supplement of paper PMC12217912
The other results are listed elsewhere or left out. Sequences were assembled here from the parent chain. Inactive controls read about 0.05.

B1: TEV protease; numbered along this chain (parent)
chain: MGESLFKGPRDYNPISSSICHLTNESDGHTTSLYGIGFGPFIITNKHLFRRNNGTLVVQSLHGVFKVKDTTTLQQHLVDGRDMIIIRMPKDFPPFPQKLKFREPQREERICLVTTNFQTKSMSSMVSDTSCTFPSGDGIFWKHWIQTKDGQCGSPLVSTRDGFIVGIHSASNFTNTNNYFTSVPKNFMELLTNQEAQQWVSGWRLNADSVLWGGHKVFMVKPEEPFQPVKEATQL

Variants of: B1
Experiment: raw area under fraction-flipped curve 0-4 h after induction (AUC4h, not background-subtracted), DNA-recorder readout of cleavage of the substrate (dimensionless); higher = more cleavage of the substrate by the protease variant
Conditions: temperature: 34 °C; time window: 0-4 h after rhamnose induction
Procedure: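 In vivo DNA recorder in E. coli TOP10(DE3) ΔrhaA at 34 °C. Each TEVp single-site mutant (parent TEVp 0) is paired with a single-site variant of the 7-mer TEVs (canonical ENLYFQ|S). The substrate sits between flexible linkers in a Bxb1-sfGFP-TEVs-SsrA fusion, so cleavage stabilises Bxb1 and speeds flipping of a recombination array, read by NGS. The value is the raw area under the fraction-flipped curve over 0-4 h after rhamnose induction (AUC4h), with ≥20 reads per time point. It is not background-subtracted; inactive controls average about 0.047.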
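Also: Bxb1 expression induced with 0.2% (w/v) L-rhamnose at OD600 near 0.5, cultures sampled hourly, flipped fraction per protease–substrate barcode pair counted by paired-end Illumina sequencing.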

| Variant | area with substrate ENAYFQS | area with substrate ENDYFQS | area with substrate ENEYFQS | area with substrate ENFYFQS | area with substrate ENRYFQS | area with substrate ENTYFQS | area with substrate ENVYFQS | area with substrate ENWYFQS | area with substrate ENCYFQS | area with substrate ENGYFQS | area with substrate ENHYFQS | area with substrate ENIYFQS | area with substrate ENKYFQS | area with substrate ENNYFQS | area with substrate ENQYFQS | area with substrate ENSYFQS | area with substrate ENPYFQS | area with substrate ENMYFQS | area with substrate ENYYFQS |
| --- | --- | --- | --- | --- | --- | --- | --- | --- | --- | --- | --- | --- | --- | --- | --- | --- | --- | --- | --- |
| H168A | 0.0689 | 0.0593 | 0.0621 | 0.0561 | 0.0544 | 0.0542 | 0.0736 | 0.0572 | – | – | – | – | – | – | – | – | – | – | – |
| H168Y | 0.0581 | 0.0623 | 0.065 | 0.0576 | 0.069 | 0.0845 | 0.0919 | 0.0512 | 0.052 | 0.0637 | 0.0663 | 0.0625 | 0.0703 | 0.0626 | 0.0587 | 0.0585 | – | – | – |
| H168G | 0.0653 | 0.0669 | 0.0688 | – | 0.0584 | – | 0.0575 | – | 0.0621 | – | 0.0492 | – | – | 0.0811 | 0.0484 | 0.0614 | – | – | – |
| H168I | 0.0559 | 0.0536 | 0.0569 | 0.032 | 0.0505 | 0.072 | 0.0662 | 0.0597 | 0.0547 | 0.0603 | – | 0.0516 | 0.0558 | – | 0.0557 | 0.0594 | 0.0692 | – | – |
| H168D | 0.0463 | 0.062 | 0.059 | 0.0486 | 0.0652 | – | 0.0638 | – | 0.0575 | 0.0674 | 0.0651 | 0.0587 | – | 0.0606 | 0.0618 | 0.0635 | – | 0.0579 | 0.0564 |
| H168L | 0.0304 | – | 0.0662 | 0.06 | 0.0652 | – | 0.0825 | 0.0666 | 0.084 | – | 0.0569 | – | 0.0646 | 0.0612 | 0.058 | 0.0606 | – | 0.059 | – |
| H168E | 0.0487 | 0.0737 | 0.059 | 0.0625 | 0.0485 | – | 0.0412 | – | – | 0.0606 | 0.0644 | – | 0.0647 | 0.0694 | 0.0659 | 0.0605 | 0.0629 | 0.0624 | 0.0587 |
| H168M | 0.0521 | 0.0524 | 0.0881 | 0.0755 | 0.0651 | 0.0613 | 0.0581 | 0.0455 | 0.0383 | 0.0721 | 0.0558 | – | 0.0603 | 0.0618 | – | 0.0519 | 0.0656 | 0.0662 | 0.06 |
| H168F | 0.0567 | 0.0601 | 0.0527 | – | – | 0.0611 | 0.0556 | – | 0.0505 | 0.051 | 0.0604 | – | 0.059 | – | – | – | 0.0739 | 0.0489 | 0.0548 |
| H168K | 0.0598 | 0.0617 | – | 0.0585 | – | 0.0397 | – | – | 0.0519 | 0.0491 | 0.0623 | 0.061 | – | – | – | 0.0598 | 0.087 | 0.0574 | 0.055 |
| H168N | 0.0544 | 0.0628 | – | 0.0519 | 0.0657 | – | – | 0.0631 | – | 0.0548 | 0.0625 | 0.0622 | 0.0601 | – | 0.0553 | 0.0546 | – | – | – |
| T192H | 0.0608 | 0.0581 | 0.0616 | 0.0708 | – | 0.056 | 0.0868 | – | – | 0.0555 | – | 0.12 | 0.0862 | 0.0621 | 0.0586 | 0.0642 | – | 0.0787 | – |
| T192V | 0.0769 | – | 0.0685 | – | – | 0.0682 | – | 0.0708 | 0.0751 | 0.072 | – | – | – | 0.0503 | 0.0638 | – | 0.0536 | – | 0.0638 |
| T192Q | 0.0914 | 0.0611 | 0.0695 | 0.064 | 0.0556 | 0.0632 | 0.0748 | – | 0.0672 | 0.0552 | – | 0.0308 | 0.0812 | 0.0816 | 0.0575 | – | 0.0744 | – | 0.0525 |
| T192I | 0.0731 | 0.0633 | 0.0637 | 0.0597 | 0.0603 | 0.0646 | 0.0905 | 0.0678 | 0.0632 | 0.0654 | 0.0609 | 0.0907 | 0.067 | 0.0597 | 0.0608 | 0.0556 | 0.0469 | 0.0836 | 0.066 |
| P184W | 0.0466 | 0.0533 | 0.0698 | 0.0206 | 0.0544 | 0.0728 | – | – | 0.0632 | 0.0745 | 0.0526 | – | 0.045 | 0.0507 | 0.0608 | 0.0644 | – | – | 0.0689 |
| P184N | 0.0618 | 0.0613 | 0.053 | – | – | 0.0474 | 0.0721 | – | 0.0473 | 0.0575 | 0.0751 | 0.0945 | 0.0497 | – | 0.0506 | 0.0647 | 0.0551 | 0.0707 | 0.051 |
| P184C | 0.0542 | – | 0.0623 | – | 0.0589 | 0.0595 | – | – | 0.0702 | 0.0583 | – | – | – | 0.0645 | 0.0491 | 0.0624 | – | – | – |
| P184V | 0.0565 | 0.059 | 0.0527 | 0.0549 | 0.0454 | 0.07 | 0.0795 | – | 0.0678 | – | – | – | 0.0724 | – | – | – | 0.0563 | – | 0.0547 |
| P184S | 0.0527 | 0.0545 | 0.065 | 0.0556 | 0.0618 | – | 0.0661 | – | 0.0589 | 0.0538 | 0.0574 | 0.0646 | 0.0656 | 0.0531 | 0.063 | 0.0656 | 0.0754 | – | 0.0565 |
| P184I | 0.04 | 0.0512 | 0.066 | – | 0.0674 | 0.0912 | 0.0566 | – | 0.0497 | 0.0574 | – | 0.0603 | 0.0582 | 0.0566 | 0.0639 | 0.0674 | – | 0.0705 | – |
| P184L | 0.0545 | 0.0666 | 0.0496 | 0.061 | 0.0539 | 0.0548 | 0.0497 | – | 0.0538 | 0.0531 | 0.0583 | 0.0733 | – | – | 0.0578 | 0.0586 | 0.0619 | 0.0512 | 0.0596 |
| I167K | 0.05 | – | 0.0568 | 0.0414 | – | 0.0524 | 0.056 | 0.0456 | 0.0587 | 0.0561 | 0.0641 | 0.0556 | 0.0601 | 0.0537 | 0.0564 | 0.051 | 0.0495 | 0.0364 | 0.0477 |
| G162C | 0.0672 | 0.0564 | 0.0527 | 0.0543 | 0.0495 | 0.0465 | 0.0698 | 0.0092 | – | 0.0601 | 0.0617 | 0.11 | – | – | 0.0512 | 0.0639 | 0.055 | – | 0.0567 |
| D208E | 0.076 | 0.0585 | – | 0.0616 | 0.0733 | – | 0.0604 | – | – | – | 0.051 | 0.0913 | – | – | 0.0638 | 0.0715 | 0.0579 | 0.043 | 0.0465 |
